# PubChem BioAssay AID1347165 (National Center for Advancing Translational Sciences (NCATS), 2019)
# “And” between values parts separate entries of the source, which are not always exact repeats. Equal values may be shown once. In all, about 220,000 compounds went through this assay and about 5,700 (2.6%) were called active. The inconclusive results got no clear call from the source; some entries with a clear call stand among them for comparison. The call rests on the fitted dose curve; in most records, active means well fitted inhibition curve with a large enough effect; inconclusive means small, poorly fitted or top-dose-only effect; inactive means no such curve, though single readings can be large or run the other way. Where the call is inconclusive, the potency comes from a doubtful curve fit.
# Molecular target: Lysine-specific demethylase 5B (Homo sapiens) (UniProt Q9UGL1)
# Sequence of UniProt Q9UGL1 (Q9UGL1 whole entry, looked up): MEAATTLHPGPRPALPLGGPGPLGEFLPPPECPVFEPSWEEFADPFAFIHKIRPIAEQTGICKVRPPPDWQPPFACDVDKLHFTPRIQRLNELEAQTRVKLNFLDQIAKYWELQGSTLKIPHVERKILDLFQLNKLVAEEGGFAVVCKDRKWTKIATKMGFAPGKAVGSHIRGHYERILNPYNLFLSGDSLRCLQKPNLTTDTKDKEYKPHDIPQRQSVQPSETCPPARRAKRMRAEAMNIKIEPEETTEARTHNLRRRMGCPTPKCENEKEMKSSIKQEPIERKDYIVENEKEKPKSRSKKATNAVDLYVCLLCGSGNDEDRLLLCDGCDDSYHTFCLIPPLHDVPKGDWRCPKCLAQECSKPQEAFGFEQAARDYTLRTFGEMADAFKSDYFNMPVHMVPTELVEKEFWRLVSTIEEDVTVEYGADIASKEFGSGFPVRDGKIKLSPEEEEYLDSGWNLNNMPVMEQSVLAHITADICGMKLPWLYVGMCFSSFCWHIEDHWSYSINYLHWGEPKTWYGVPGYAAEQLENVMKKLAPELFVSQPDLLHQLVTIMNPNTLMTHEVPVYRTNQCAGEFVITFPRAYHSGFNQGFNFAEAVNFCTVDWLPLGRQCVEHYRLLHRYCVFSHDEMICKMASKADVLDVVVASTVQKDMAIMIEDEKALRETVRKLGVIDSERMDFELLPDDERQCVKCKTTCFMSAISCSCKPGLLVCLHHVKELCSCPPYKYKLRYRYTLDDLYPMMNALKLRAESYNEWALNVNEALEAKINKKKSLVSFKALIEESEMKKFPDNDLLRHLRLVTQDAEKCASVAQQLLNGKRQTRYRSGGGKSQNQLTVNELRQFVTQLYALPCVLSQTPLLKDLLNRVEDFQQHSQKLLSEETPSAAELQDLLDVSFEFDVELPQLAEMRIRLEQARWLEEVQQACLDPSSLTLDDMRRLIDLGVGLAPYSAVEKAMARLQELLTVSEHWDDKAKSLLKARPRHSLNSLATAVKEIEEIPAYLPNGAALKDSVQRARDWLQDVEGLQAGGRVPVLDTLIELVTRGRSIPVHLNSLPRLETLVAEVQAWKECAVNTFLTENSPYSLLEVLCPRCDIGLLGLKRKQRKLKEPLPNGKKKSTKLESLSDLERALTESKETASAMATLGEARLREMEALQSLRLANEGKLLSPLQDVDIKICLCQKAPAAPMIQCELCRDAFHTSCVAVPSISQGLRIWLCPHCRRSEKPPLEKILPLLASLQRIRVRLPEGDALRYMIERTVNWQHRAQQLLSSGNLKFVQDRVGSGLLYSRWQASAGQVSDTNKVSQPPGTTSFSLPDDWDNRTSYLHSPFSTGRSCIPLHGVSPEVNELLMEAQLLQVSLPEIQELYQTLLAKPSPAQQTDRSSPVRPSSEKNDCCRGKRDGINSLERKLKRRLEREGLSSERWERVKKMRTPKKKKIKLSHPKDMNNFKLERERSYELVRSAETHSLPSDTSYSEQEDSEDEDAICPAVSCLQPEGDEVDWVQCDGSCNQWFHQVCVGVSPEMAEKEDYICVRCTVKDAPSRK
# Assay: Primary screen for KDM5B Histone Demethylases FDH-coupled qHTS; further: nearly all actives have a fitted effect of over 70% in size; on activity change, negative = inhibition: 0% is about no effect
# Conditions: FDH-coupled NADH fluorescence (FDH is formaldehyde dehydrogenase); activity change, negative = inhibition: at 57.7 µM (top of the series) unless noted
# Procedure, shortened: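 Here, H3K4me3 peptide (12.5 µM in substrate mix) is demethylated by KDM5BΔAP, 200 nM final, after 10 min compound exposure. Formaldehyde product is coupled through FDH (0.25 U/mL in mix) to NADH fluorescence; 30-min ΔRFU feeds dose-response curves.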
# Potency means the concentration at half of the fitted maximal effect; tags describe the fitted curve by direction and shape.
Compound,"activity change, negative = inhibition",Potency
CCOc1cc(C2Nc3ccc(C)cc3[C@H]3OCCC[C@@H]23)cc(Br)c1O (some centres not stated),inactive: -1.14%,–
CN(Cc1cccs1)C(=O)CSc1nc2ccsc2c(=O)n1C,inactive: 9.85%,–
COCCn1cnc2ccc(-c3ccc(F)c(Cl)c3)nc2c1=O,–,active: 31.6 µM
Cc1cc2oc(=O)cc(CN(C)Cc3nc4ccccc4c(=O)[nH]3)c2cc1C,inactive: 10.7%,–
Cc1cc(C)n(-c2ccc3nnc(C)n3n2)n1,–,"inconclusive: 28.2 µM [inhibitor, partial curve, poor fit]"
COc1ccccc1-c1cc(-c2ccncc2)c2cncn2c1,–,"inconclusive: 35.5 µM [inhibitor, partial curve]"
COc1ccc(OC(=O)CSc2nnc(-c3ccc(F)cc3)o2)cc1,–,"inconclusive: 31.6 µM [inhibitor, single point]"
COc1cccc(CNc2nc(NCc3cccc(OC)c3)n(S(=O)(=O)c3ccc(C)cc3)n2)c1,–,"inconclusive: 39.8 µM [inhibitor, single point]"
CCCn1c2ccccc2c2cnn(CC(=O)NC(C)CC)c(=O)c21 (configuration not stated),–,"inconclusive: 14.1 µM [inhibitor, partial curve, poor fit] and inconclusive: 31.6 µM [inhibitor, partial curve, poor fit]"
CSc1cccc(NC(=O)c2ccc3c(c2)OCC(=O)N3)c1,–,"inconclusive: 39.8 µM [inhibitor, single point]"
CCCCNC(=O)CCc1cc2ccc(C)cc2[nH]c1=O,–,"inconclusive: 25.1 µM [inhibitor, single point]"
CC(CNC(=O)c1ccc(Nc2nc3ccccc3n3nnnc23)cc1)c1ccccc1 (configuration not stated),–,"inconclusive: 2.24 µM [inhibitor, partial curve, poor fit]"
Cc1nc(CNC(=O)CC2C(=O)NCCN2Cc2ccccn2)n[nH]1 (configuration not stated),–,"inconclusive: 7.08 µM [inhibitor, partial curve]"
COCCNC(=O)Cn1cc2c(n1)-c1c(oc(C(=O)N3CCCC3)c1C)CC2,–,"inconclusive: 3.55 µM [inhibitor, full curve, poor fit]"
CC(=O)NC[C@@H]1C=C(C)[C@H](CC(=O)NCc2ccc(F)cc2)C[C@H]1C(C)C,inactive: 14.1% [at 86.2 µM],–
COC(=O)c1c(-c2cccs2)csc1NC(=O)COc1ccccc1,–,"inconclusive: 15.8 µM [inhibitor, partial curve, poor fit]"
Cc1noc(C)c1-c1cc2cc(CN(C)C)oc2c(-c2ccc([S+](C)(=O)[O-])cc2)n1,–,active: 39.8 µM
O=C(NCCCN1CCCCC1)c1ccc2c(c1)sc1nc(-c3ccc(F)cc3)cn12,–,"inconclusive: 31.6 µM [inhibitor, partial curve, poor fit]"
COc1ccc(OC)c([S+](=O)([O-])c2nnn3c2nc(NCc2ccc(F)cc2)c2ccccc23)c1,inactive: -21.2% [at 115 µM],–
COc1ccc(CN2CCNC(=O)C2CC(=O)NCc2ccncc2)cc1OC (configuration not stated),–,"inconclusive: 15.8 µM [inhibitor, partial curve]"
COc1ccc(-c2nnc(SCC(=O)c3ccc(NC(C)=O)cc3)o2)cc1OC,–,"inconclusive: 3.55 µM [inhibitor, full curve, poor fit]"
CC1=NN2C(=N)/C(=C\c3cc(C)n(-c4ccc(C)cc4)c3C)C(=O)N=C2S1,–,"inconclusive: 39.8 µM [inhibitor, partial curve, poor fit]"
O=C(NCc1ccco1)c1ccc(-c2ccc(N3CCCCCC3)nc2)cc1,–,"inconclusive: 0.794 µM [inhibitor, full curve, poor fit]"

Compound,"activity change, negative = inhibition",Potency
CC(OC(=O)c1cc(-c2ccco2)nc2ccccc12)C(=O)NC(=O)NC(C)(C)C (configuration not stated),–,"inconclusive: 25.1 µM [inhibitor, partial curve, poor fit]"
CSc1ccc(C2c3[nH]c4ccccc4c3CCN2C(=O)CCC2CCCC2)cc1 (configuration not stated),–,"inconclusive: 1.58 µM [inhibitor, partial curve, poor fit]"
COC(=O)c1c(-c2cccs2)csc1NC(=O)c1ccc(C(C)(C)C)cc1,–,"inconclusive: 4.47 µM [inhibitor, full curve, poor fit]"
O=C(Nc1ccc2nc(SCC(=O)N3CCCC3)sc2c1)c1cccc(F)c1,–,"inconclusive: 35.5 µM [inhibitor, partial curve, poor fit]"
O=C(CCc1nnc2ccc(NCc3ccc4c(c3)OCO4)nn12)N1CCC2(CC1)OCCO2,inactive: 17%,–
CN(C)C(=O)CCC[C@H]1NC[C@@H]2C[C@H]1CN(Cc1ccccc1)C2,–,"inconclusive: 4.47 µM [inhibitor, full curve]"
COc1ccc(Br)cc1/C=C(\C#N)C(=O)NC(C)c1ccccc1 (configuration not stated),–,"inconclusive: 11.2 µM [inhibitor, partial curve, poor fit]"
COCCN1C(=O)c2cccn2CC1CNC(=O)c1cccc(F)c1 (configuration not stated),inactive: -8.27%,–
Cc1c(O)cccc1C(=O)N1CCC2(CC1)CN(C)CCN2C,inactive: 30.2%,–
CCC(=O)NCc1cc2c(nc1OC)CN(C1CCCC1)C2=O,–,"inconclusive: 28.2 µM [inhibitor, partial curve]"
Cc1ccc(OCc2nc(-c3ccccc3OCC(=O)N3CCCCCC3)no2)cc1,inactive: 12.4%,–
CCC1c2nccn2CCCN1C(=O)c1ccc(OC)nc1OC (configuration not stated),inactive: 8.14%,–
Cc1cc2c(c(=O)n1Cc1ccccn1)C(c1cc3c(cc1Br)OCO3)C(C#N)=C(N)O2 (configuration not stated),–,"inconclusive: 31.6 µM [inhibitor, single point]"
CC(=O)N1c2ccccc2-c2nnc(SCc3ccccc3)nc2OC1C (configuration not stated),inactive: 12.9%,–
CCn1cc(Cl)c(C(=O)N2CCc3c(nc4cc(-c5ccccc5)[nH]n4c3=O)C2)n1,–,active: 25.1 µM
Cc1ccc(S(=O)(=O)N[C@H]2CO[C@H]3[C@@H]2OC[C@@H]3Nc2nccc(C(C)(C)C)n2)cc1,–,"inconclusive: 20 µM [inhibitor, partial curve, poor fit]"
COc1ccc2c(CNCc3ccco3)c(C(=O)O)n(Cc3ccccc3)c2c1,–,"inconclusive: 17.8 µM [inhibitor, partial curve, poor fit]"
Cn1nccc1OCc1cn2c(=O)n(C)cc(-c3cccc(OCc4ccccc4)c3)c2n1,–,active: 39.8 µM
Cc1ccc(-c2nc(S(=O)(=O)c3ccc(C)cc3)c(N3CCCCC3)o2)cc1,–,"inconclusive: 25.1 µM [inhibitor, partial curve, poor fit]"
COc1cccc(CN2CC[C@@](C)(O)[C@H](N3CCCC3)C2)c1,–,"inconclusive: 17.8 µM [inhibitor, single point]"
CCCOC(=O)c1cc(NC(=O)c2cc(Cl)c(OC)c(Cl)c2)ccc1N1CCOCC1,–,"inconclusive: 39.8 µM [inhibitor, single point]"
O=C(CCC1CCCC1)Nc1cccc2ncccc12,inactive: -3.21%,–
Cc1cccc(N2Cc3c(ncnc3N3CCN(Cc4ccccc4)CC3)N(C)CC2=O)c1,–,"inconclusive: 39.8 µM [inhibitor, single point]"

Compound,"activity change, negative = inhibition",Potency
Cc1ccccc1Oc1ncccc1CNCc1cccc(O)c1,inactive: -15.2%,–
COCCOc1cc(C)c2c(c1C)C[C@H](C(C)C(=O)NCc1cccs1)CC2 (some centres not stated),–,"inconclusive: 31.6 µM [inhibitor, single point]"
CC(C)c1cccc(C(C)C)c1NC(=O)N1CCc2c(c3cc(F)ccc3n2C)C1,–,active: 25.1 µM
COc1cccc(-c2ccnc3nc(C4CCC4)nn23)c1,–,active: 28.2 µM
Cc1ccc(C2(c3ccc(C)cc3)SC(=S)c3ccccc32)cc1,–,"inconclusive: 28.2 µM [inhibitor, partial curve, poor fit]"
CC(CNC(=O)c1cc(C2CC2)nc2ccccc12)N(C)C (configuration not stated),–,"inconclusive: 17.8 µM [inhibitor, partial curve, poor fit]"
COc1cc(C2C(C(=O)Nc3ccccc3)=C(C)Nc3nc(CCCO)nn32)cc(OC)c1OC (configuration not stated),inactive: 4.16%,–
O=C(c1n[nH]c2c1CCCC2)N1CCCC2(C1)Nc1cccnc1NC2=NC1CCCC1 (configuration not stated),–,active: 25.1 µM
CCc1ccc(NC(=O)c2ccc(OCc3ccccc3)cc2)cc1,inactive: 9.22%,–
Cc1cccc(Cc2c(C)nc3nc(SCc4cccc(F)c4)nn3c2C)c1,–,"inconclusive: 15.8 µM [inhibitor, partial curve, poor fit]"
O=C(CCC1CCCO1)NC1CCCCCC1 (configuration not stated),inactive: 13.4%,–
COc1cc(C)c(-c2nc(CN3CCN(C)C(=O)C3)c(C)o2)cc1C,–,"inconclusive: 31.6 µM [inhibitor, partial curve, poor fit]"
COc1ccc(N2CC(c3noc(-c4cc(OC)c(OC)c(OC)c4)n3)CC2=O)cc1 (configuration not stated),inactive: -26.1%,–
N#Cc1c(-c2cc(Cl)ccc2Cl)csc1N,–,"inconclusive: 3.16 µM [inhibitor, full curve, poor fit]"
CN(C)C(=O)N1CCN(C2CCNCC2)C(=O)C1,–,"inconclusive: 100 µM [inhibitor, partial curve]"
CC1=C[C@@H](CN(C)Cc2cccnc2)[C@H](C(C)C)C[C@H]1Cc1nnc(-c2ccc([N+](=O)[O-])cc2)o1,–,active: 12.6 µM
CC(C)CCNC(=O)Cn1cc(C#N)c2ccccc21,inactive: 18.4%,–
C=CCN1C(=O)/C(=c2\sc3nc(=O)c(Cc4ccccc4)nn3c2=O)c2ccccc21,–,"inconclusive: 28.2 µM [inhibitor, single point]"
CN(C(=O)CN1CCOCC1)C1CCc2nn(C)c(=O)n2CC1 (configuration not stated),inactive: -7.83%,–
O=C1CCN(Cc2ccncc2)CCCC(C(=O)Nc2cccnc2)CCN1 (configuration not stated),–,"inconclusive: 31.6 µM [inhibitor, partial curve, poor fit]"
O=C(Nc1ccc2nc(SCC(=O)N3CCc4ccccc43)sc2c1)c1ccc(Cl)cc1,–,"inconclusive: 14.1 µM [inhibitor, partial curve, poor fit]"
